For 32 sequences, binding signal results are on record in publication PMC12820563, “FoxP3 forms a head-to-head dimer in vivo and stabilizes its multimerization on adjacent microsatellites”.

Some of the results follow.

This assay concerns the target T1, MBP-FoxP1dN (Mus musculus, UniProt P58462 326-579).
T1 sequence: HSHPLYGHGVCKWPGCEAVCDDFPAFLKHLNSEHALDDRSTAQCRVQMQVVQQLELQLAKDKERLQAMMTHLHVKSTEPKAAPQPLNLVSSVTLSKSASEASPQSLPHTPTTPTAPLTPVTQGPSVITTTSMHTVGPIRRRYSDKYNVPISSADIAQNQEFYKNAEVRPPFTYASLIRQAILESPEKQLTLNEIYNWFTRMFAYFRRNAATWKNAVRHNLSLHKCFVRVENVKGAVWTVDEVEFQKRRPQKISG
The experiment in a line: PD-seq (MBP pull-down with sequencing); 20 mM Tris-HCl pH 7.5, 100 mM NaCl, 1.5 mM MgCl2, 0.4 uM protein, 0.1 uM dsDNA library, 30 min, room temperature, amylose pull-down; high values mean tight binding. The following applies: protein: recombinant; tags: His6-MBP; chain copies: 2; dsDNA, one strand shown. The method, boiled down: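 E. coli-expressed mouse FoxP3 or FoxP1 fragment, N-terminus removed and tagged with His6-MBP, was used at 0.4 µM against 0.1 µM of a Klenow-filled degenerate double-stranded DNA library. After 30 min at room temperature in Tris pH 7.5 buffer with NaCl and MgCl2, complexes were pulled down on amylose resin and washed three times. Binding is pull-down over input reads-per-million enrichment from pooled replicates of the proteinase K-released, PCR-barcoded, Illumina-sequenced DNA.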
For the sequence “GATGATTGTTCTCCCAGCTGATGAATTCCAACGCTCGAGTAAACAAATTTTCCTAATCTTTCTGTTCAAGCGCCATCTAC”, the binding signal was 0.799 RPM ratio (pull-down/input).
Turning to “GATGATTGTTCTCCCAGCTGATGAATTCCCTCTCTCGAGTAAACAAATTTTCCTAATCTTTCTGTTCAAGCGCCATCTAC”, the binding signal is 0.765 RPM ratio (pull-down/input).
“GATGATTGTTCTCCCAGCTGATGAATTGACGGCGTCGAGTAAACAAATTTTCCTAATCTTTCTGTTCAAGCGCCATCTAC”: the binding signal is 0.994 RPM ratio (pull-down/input).
For the sequence “GATGATTGTTCTCCCAGCTGATGAATTATCACACTCGAGTAAACAAATTTTCCTAATCTTTCTGTTCAAGCGCCATCTAC”, the binding signal is 1.1 RPM ratio (pull-down/input).
Consider “GATGATTGTTCTCCCAGCTGATGAATTAATGCCGTCGAGTAAACAAATTTTCCTAATCTTTCTGTTCAAGCGCCATCTAC”, for which the binding signal is 1.11 RPM ratio (pull-down/input).
Regarding “GATGATTGTTCTCCCAGCTGATGAATTGCTACACTCGAGTAAACAAATTTTCCTAATCTTTCTGTTCAAGCGCCATCTAC”, the binding signal was 1.17 RPM ratio (pull-down/input).
Consider “GATGATTGTTCTCCCAGCTGATGAATTGTGGCGTTCGAGTAAACAAATTTTCCTAATCTTTCTGTTCAAGCGCCATCTAC”, for which the binding signal was 1.18 RPM ratio (pull-down/input).
“GATGATTGTTCTCCCAGCTGATGAATTGGACGCGTCGAGTAAACAAATTTTCCTAATCTTTCTGTTCAAGCGCCATCTAC”: the binding signal is 0.926 RPM ratio (pull-down/input).
Then “GATGATTGTTCTCCCAGCTGATGAATTCCCGAAGTCGAGTAAACAAATTTTCCTAATCTTTCTGTTCAAGCGCCATCTAC”, with 0.724 RPM ratio (pull-down/input).
For the sequence “GATGATTGTTCTCCCAGCTGATGAATTGACCATCTCGAGTAAACAAATTTTCCTAATCTTTCTGTTCAAGCGCCATCTAC”, the binding signal is 0.882 RPM ratio (pull-down/input).
Take “GATGATTGTTCTCCCAGCTGATGAATTACCGAGCTCGAGTAAACAAATTTTCCTAATCTTTCTGTTCAAGCGCCATCTAC”: the binding signal was 0.919 RPM ratio (pull-down/input).
As to “GATGATTGTTCTCCCAGCTGATGAATTGTAACGTTCGAGTAAACAAATTTTCCTAATCTTTCTGTTCAAGCGCCATCTAC”, the binding signal is 0.999 RPM ratio (pull-down/input).
“GATGATTGTTCTCCCAGCTGATGAATTACCGAAATCGAGTAAACAAATTTTCCTAATCTTTCTGTTCAAGCGCCATCTAC”: the binding signal is 1.1 RPM ratio (pull-down/input).
As to “GATGATTGTTCTCCCAGCTGATGAATTCCTACTGTCGAGTAAACAAATTTTCCTAATCTTTCTGTTCAAGCGCCATCTAC”, the binding signal was 0.85 RPM ratio (pull-down/input).
Then “GATGATTGTTCTCCCAGCTGATGAATTTGTTATATCGAGTAAACAAATTTTCCTAATCTTTCTGTTCAAGCGCCATCTAC”, with 1.5 RPM ratio (pull-down/input); and “GATGATTGTTCTCCCAGCTGATGAATTTTCACAGTCGAGTAAACAAATTTTCCTAATCTTTCTGTTCAAGCGCCATCTAC”, with 0.928 RPM ratio (pull-down/input).
With “GATGATTGTTCTCCCAGCTGATGAATTTTCATGGTCGAGTAAACAAATTTTCCTAATCTTTCTGTTCAAGCGCCATCTAC”, the binding signal was 0.906 RPM ratio (pull-down/input).
On to “GATGATTGTTCTCCCAGCTGATGAATTCCTCTTATCGAGTAAACAAATTTTCCTAATCTTTCTGTTCAAGCGCCATCTAC”, for which the binding signal was 0.911 RPM ratio (pull-down/input).
Turning to “GATGATTGTTCTCCCAGCTGATGAATTGCCGTAGTCGAGTAAACAAATTTTCCTAATCTTTCTGTTCAAGCGCCATCTAC”, the binding signal was 0.972 RPM ratio (pull-down/input).
In the case of “GATGATTGTTCTCCCAGCTGATGAATTACGCGCCTCGAGTAAACAAATTTTCCTAATCTTTCTGTTCAAGCGCCATCTAC”, the binding signal was 1.12 RPM ratio (pull-down/input).
For the sequence “GATGATTGTTCTCCCAGCTGATGAATTGAAGGAGTCGAGTAAACAAATTTTCCTAATCTTTCTGTTCAAGCGCCATCTAC”, the binding signal was 0.783 RPM ratio (pull-down/input).
Regarding “GATGATTGTTCTCCCAGCTGATGAATTTTGGAGTTCGAGTAAACAAATTTTCCTAATCTTTCTGTTCAAGCGCCATCTAC”, the binding signal was 0.855 RPM ratio (pull-down/input).
Regarding “GATGATTGTTCTCCCAGCTGATGAATTATATCGGTCGAGTAAACAAATTTTCCTAATCTTTCTGTTCAAGCGCCATCTAC”, the binding signal was 0.888 RPM ratio (pull-down/input).
Then “GATGATTGTTCTCCCAGCTGATGAATTACTAAGCTCGAGTAAACAAATTTTCCTAATCTTTCTGTTCAAGCGCCATCTAC”, with 1.05 RPM ratio (pull-down/input); and “GATGATTGTTCTCCCAGCTGATGAATTGACGTGATCGAGTAAACAAATTTTCCTAATCTTTCTGTTCAAGCGCCATCTAC”, with 1.08 RPM ratio (pull-down/input).
Then “GATGATTGTTCTCCCAGCTGATGAATTGCCCAATTCGAGTAAACAAATTTTCCTAATCTTTCTGTTCAAGCGCCATCTAC”, with 1.03 RPM ratio (pull-down/input); and “GATGATTGTTCTCCCAGCTGATGAATTGGACACCTCGAGTAAACAAATTTTCCTAATCTTTCTGTTCAAGCGCCATCTAC”, with 0.802 RPM ratio (pull-down/input).
As for “GATGATTGTTCTCCCAGCTGATGAATTTTAAAAATCGAGTAAACAAATTTTCCTAATCTTTCTGTTCAAGCGCCATCTAC”, the binding signal was 1.01 RPM ratio (pull-down/input).
Consider “GATGATTGTTCTCCCAGCTGATGAATTGGAGGACTCGAGTAAACAAATTTTCCTAATCTTTCTGTTCAAGCGCCATCTAC”, for which the binding signal is 0.757 RPM ratio (pull-down/input).
“GATGATTGTTCTCCCAGCTGATGAATTTCCGGGATCGAGTAAACAAATTTTCCTAATCTTTCTGTTCAAGCGCCATCTAC”: the binding signal was 0.887 RPM ratio (pull-down/input).
On to “GATGATTGTTCTCCCAGCTGATGAATTTACATTTTCGAGTAAACAAATTTTCCTAATCTTTCTGTTCAAGCGCCATCTAC”, for which the binding signal is 1.38 RPM ratio (pull-down/input).
Regarding “GATGATTGTTCTCCCAGCTGATGAATTAGGGCCATCGAGTAAACAAATTTTCCTAATCTTTCTGTTCAAGCGCCATCTAC”, the binding signal is 0.901 RPM ratio (pull-down/input).
